Measured values taken from PubChem BioAssay AID488969 (Vanderbilt High Throughput Screening Facility, 2010).
Over roughly 110,000 compounds, “z-score” has its median near -0.1; the highest 2% begin near 2. The list shows a part of the results. Activity calls are given as the source filed them.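 The calls were made as follows: active = z-score in the third read window above 3 or below -3; inactive = the rest.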

Target: Metabotropic glutamate receptor 8 (Rattus norvegicus) (UniProt P70579)
Test: mGluR8 Gi/Go-coupled signaling modulation – cell-based, rat, thallium flux, HTS, primary screen (AID 488969)
Conditions: HEK293 rat mGluR8, GIRK (G protein-gated inwardly rectifying potassium channel) thallium flux, FluoZin2; at 10 µM; stronger effect = higher value; submaximal glutamate (EC20) added with thallium

Sequence of UniProt P70579 (P70579 whole entry, looked up): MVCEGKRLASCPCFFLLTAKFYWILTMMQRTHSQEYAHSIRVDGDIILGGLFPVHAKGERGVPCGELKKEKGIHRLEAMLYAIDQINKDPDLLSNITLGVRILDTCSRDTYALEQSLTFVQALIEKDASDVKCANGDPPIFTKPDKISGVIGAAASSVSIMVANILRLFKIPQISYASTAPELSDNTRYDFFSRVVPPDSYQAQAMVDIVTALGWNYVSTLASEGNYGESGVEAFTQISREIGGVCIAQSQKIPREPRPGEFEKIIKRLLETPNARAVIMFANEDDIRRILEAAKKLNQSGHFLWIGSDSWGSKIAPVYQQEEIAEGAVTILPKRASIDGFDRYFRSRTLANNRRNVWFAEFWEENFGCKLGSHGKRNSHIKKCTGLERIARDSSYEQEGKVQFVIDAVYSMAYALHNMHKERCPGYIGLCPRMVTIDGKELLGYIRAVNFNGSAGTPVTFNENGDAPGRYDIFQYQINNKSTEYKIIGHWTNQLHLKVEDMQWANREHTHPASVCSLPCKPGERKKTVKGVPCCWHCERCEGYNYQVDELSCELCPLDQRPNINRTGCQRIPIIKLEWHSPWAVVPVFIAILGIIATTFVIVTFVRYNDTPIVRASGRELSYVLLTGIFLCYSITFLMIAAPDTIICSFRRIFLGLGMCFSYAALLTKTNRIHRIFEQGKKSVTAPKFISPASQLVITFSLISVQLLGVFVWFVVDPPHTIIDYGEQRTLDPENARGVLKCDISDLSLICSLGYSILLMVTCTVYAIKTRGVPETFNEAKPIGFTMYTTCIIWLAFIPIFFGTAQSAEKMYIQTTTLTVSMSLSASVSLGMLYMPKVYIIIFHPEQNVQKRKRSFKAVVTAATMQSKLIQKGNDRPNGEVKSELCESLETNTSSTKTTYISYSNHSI

Structure (SMILES)	z-score
C=CCSc1nc2ccccc2n1C(=O)/C=C/c1ccc(OC)c(OC)c1	0.354
COc1cccc(/C=N/NC(N)=S)c1OCc1ccccc1Cl	-0.122
Cc1ccc(NC(=O)c2cc(S(=O)(=O)N3CCCCC3)ccc2N2CCOCC2)cc1F	-0.105
CC(C(=O)NCC1CCCO1)N(C(=O)c1snc(C(N)=O)c1N)c1cccc(F)c1 (stereo unspecified)	-0.442
O=C(NCCNc1ccc([N+](=O)[O-])cc1)c1cccc2c(Br)cccc12	0.14
CC(Cc1ccccc1)NC(=O)C1CCCNC1=O (stereo unspecified)	-0.463
O=C1OC(c2ccc(Cl)cc2)=N/C1=C\c1cccnc1	-0.164
CCOc1ccc(CN(C)CC(=O)NNC(=O)c2ccc(Cl)cc2)cc1OC	0.122
COc1ccc(CCNC(=O)c2ccc(CNS(=O)(=O)c3cc(C)ccc3C)cc2)cc1OC	-0.564
CN1C(=O)C(O)(CC(=O)c2ccc3c(c2)OCO3)c2ccccc21 (stereo unspecified)	-0.0844
O=C1CC(=C(c2ccccc2)c2ccccc2)C(=O)N1CCCN1CCN(c2cccc(Cl)c2)CC1	-0.113
CC(NC(=O)c1sc2cc([N+](=O)[O-])ccc2c1Cl)C(C)(C)C (stereo unspecified)	0.263
Cc1c(NC(=O)c2ccco2)cccc1-c1nc2cccnc2s1	-0.624
Brc1ccc(/C=N/Nc2ccc3ccccc3n2)cc1	-0.0956
O=C(CSc1ccccc1)Nc1ccc(N2CCN(c3ccccc3)CC2)c(F)c1	-0.106
Cc1cccn2c(=O)c(C=O)c(N3CCCCCC3)nc12	-0.417
CCN(CCCNS(=O)(=O)c1ccc2c(c1)CCN2C(C)=O)c1cccc(C)c1	-0.185
O=C(c1ccco1)N1CCN(C(=O)c2cnn3cccnc23)CC1	-0.36
COc1ccc(-c2nn(C)c(=O)c3ccccc23)cc1CNS(C)(=O)=O	0.148
C/C(=C\C(=O)c1ccccc1)NNc1nc2ccccc2s1	-0.107
CC(NCC1(N2CCOCC2)CCCCC1)C(=O)N1CCc2ccccc21 (stereo unspecified)	0.962
CCCN=C(C)c1c(-c2ccccc2)[nH]n(-c2nc3ccccc3s2)c1=O	-0.128
Cc1cccc(-n2c(CNC(=O)c3ccc(S(=O)(=O)N4CCCC4)cc3)n[nH]c2=S)c1	-0.425

Structure (SMILES)	z-score
N#Cc1cc2c(nc1SCC(=O)N1CCOCC1)CCCCC2	0.155
CCCS/C(N)=N/N=C/c1ccccc1O	-0.16
O=C(O)C(C(=O)/C=C/c1ccco1)=C1SCCS1	-0.14
CCC(c1nnnn1C(C)(C)C)N(Cc1cccs1)Cc1cc2cc(C)c(C)cc2n2nnnc12 (stereo unspecified)	-0.0672
COc1ccc(NS(=O)(=O)c2cc(OCC(N)=O)c(C)cc2Cl)cc1	0.049
CC(=O)NCc1nc2ccccc2n1Cc1ccccc1F	0.652
CCCOC(=O)c1ccc(Oc2cn[nH]c2-c2ccc(OCC)cc2O)cc1	0.835
Cc1nc(S/C(=C\c2ccc(OCc3ccccc3Cl)cc2)C(=O)O)n[nH]1	-0.511
CCCN(C(=O)Cc1nc(N)n[nH]1)C1(C(=O)Nc2ccccc2C)CCCCC1	0.232
O=C(Nc1ccn(-c2ccccc2)n1)c1ccc(Cl)cc1	-0.201
COc1ccc(S(=O)(=O)NCCc2c(C)nn(C)c2Oc2ccccc2)cc1	-0.101
O=C1CN(c2ccc(Cl)cc2)C(=O)CN1NC(=S)Nc1ccc(Cl)cc1	-0.0528
CCOc1ccc2c(C)c(C(=O)O)oc2c1OCC	-0.107
COc1ccc(-c2csc(NC(=O)COc3ccc(N(C)S(=O)(=O)c4ccc(C)cc4)cc3)n2)cc1	0.275
O=c1c2ccccc2nc2c3ccccc3c(NCCN3CCOCC3)nn12	0.173
O=C(NC1(C(F)(F)F)NC(=O)N(Cc2cccnc2)C1=O)c1cccs1 (stereo unspecified)	-0.0452
CCCC(=O)Nc1ccc(Br)c(Cl)c1	0.247
COc1ccc(NC(=O)CCS(=O)(=O)c2ccc(OC)cc2)cc1	-0.0401
Cc1ccc(NC(=O)CCS(=O)(=O)c2ccc(Br)cc2)nc1	1.03
Nc1ccc2oc3ccc(N)cc3c(=O)c2c1	-0.377
Cc1ccc(N(CC(O)CON=C2c3ccccc3-c3ccccc32)S(C)(=O)=O)cc1 (stereo unspecified)	0.98
Cc1nn(Cc2c(F)c(F)c(F)c(F)c2F)c(C)c1NC(=O)c1ccc(COc2ccccc2Cl)o1	-0.506
CCCCN1C(=O)N(C)C2C1N(C)C(=O)N2CCCC (stereo unspecified)	-0.16

Structure (SMILES)	z-score
Cc1oc(/C=N/NS(=O)(=O)c2ccccc2)cc1Br	1.12
CCC(=O)N1CCc2cc(S(=O)(=O)CCC(=O)Nc3nc(C)cs3)ccc21	-0.0859
NC(=O)c1cc(S(=O)(=O)NC2CCCCC2)co1	-0.0283
CCC(C)NS(=O)(=O)c1ccc(OCC(=O)N2CCCC2)cc1 (stereo unspecified)	0.125
CCOc1cc(CNCc2ccccn2)ccc1OCC(=O)NC(C)(C)C	-0.243
O=C1OCC(CO)(CO)N=C1NNc1cc(Cl)ccc1Cl	-0.197
CCOc1ccccc1OCCCOc1ccc(C)cc1Br	-0.494
COc1ccc(-c2nnc(SC(C)C(=O)Nc3nccs3)n2-c2ccccc2)cc1OC (stereo unspecified)	-1.69
CCOC(=O)c1cc(-c2ccccc2)n(CC(=O)Nc2ccc(OC)c(OC)c2)c1C	0.791
CCCCc1ccc(Nc2nc(CCC)cc(=O)[nH]2)cc1	0.196
CSc1nncn1/N=C/c1ccccc1F	-0.418
Cc1cc(NC(=O)c2c(F)c(F)c(F)c(F)c2F)no1	0.46
O=C1/C(=C/c2ccc([N+](=O)[O-])cc2)C=C(c2ccccc2)N1c1ccccc1	0.032
O=C1NC2(CCCc3ccccc32)C(=O)N1CCOc1ccc(Br)cc1 (stereo unspecified)	-0.132
CC(C)(C)NC(=O)C(c1ccco1)N(C(=O)Cn1nnc(-c2ccc(F)cc2)n1)c1ccccc1F (stereo unspecified)	-0.0985
Cc1nc(NCCN2CCOCC2)c2oc3ccccc3c2n1	1.16
O=c1oc2cc(OCc3ccc(F)cc3F)ccc2cc1-c1ccccn1	-0.256
COC(=O)c1c(C)oc2ccc(NS(=O)(=O)c3cc(OC)ccc3OC)cc12	0.169
Cc1ccc(C2CC(=O)C=C(NCC(C)C)C2)cc1 (stereo unspecified)	-0.142
COc1cccc(NC(=O)CSc2nnc(-c3ccoc3C)n2-c2ccccc2)c1	active: -3.15
CC(=O)Nc1ccc(S(=O)(=O)n2cnc3ccccc32)cc1	-0.791
COc1cc(OC)c(OC)cc1/C=N/NC(=O)c1ccc(=O)n(C)c1	-0.238
O=C(NN1CCCCC1)c1ccccc1	0.836

Structure (SMILES)	z-score
CC(NC(=O)Nc1cccnc1)(C(F)(F)F)C(F)(F)F	-0.00545
Cc1cc(C)c(NC(=S)NC(=O)c2ccc(-c3ccccc3)cc2)c(C)c1	0.489
COc1ccc(NC2=Nc3ccccc3N3C2=Nc2c(c(C)nn2-c2ccc(C)cc2)C3c2cccnc2)cc1 (stereo unspecified)	-0.323
CCn1c(COc2cccc(C)c2)nnc1SCC(=O)N1CCCC1	-0.388
CC1=C(C(=O)OCC(C)C)C(c2cc3c(cc2Br)OCO3)NC(=O)N1C (stereo unspecified)	-1.33
CCN(CC)c1ccc(NC(=O)c2ccc(Br)o2)c(C)c1	0.067
O=C(N/N=C\c1cccc(Br)c1)c1ccccc1-n1cccc1	-0.471
CCc1cccc2c(C(=O)COC(=O)c3nn(C)c(=O)c4ccccc34)c[nH]c12	-1.02
Nc1ccc(-n2nncc2-c2ccc(Cl)cc2)cc1	-0.392
O=C(Nc1ccccc1OC(F)F)c1ccc(F)cc1	0.162
Cc1cc2nc(-c3ccc(NC(=O)C(C)C)cc3)oc2cc1C	0.286
C/C(Cc1ccccc1)=N\NC(=O)CNC(=O)c1cccc(Br)c1	0.105
CCOC(=O)N1CCN(C(=O)C2CC(=O)N(Cc3ccc(OC)cc3)C2)CC1 (stereo unspecified)	-0.0789
COC(=O)c1cc(Cl)c(NC(=O)c2ccco2)cc1OC	-0.0432
O=C(NC1CCSC1=O)c1ccccc1 (stereo unspecified)	0.917
CC(C)Cc1nc(Nc2ccc(S(=O)(=O)N3CCCC3)cc2)c2nnn(Cc3ccccc3)c2n1	0.659
Cc1cccc(NC(=O)c2cc(Cl)ccc2[N+](=O)[O-])c1	-0.241
CCCCC(=O)Nc1ccc(C(=O)Nc2ccc(S(=O)(=O)Nc3nccc(C)n3)cc2)cc1	-0.312
CC(=O)N1CCN(C(C)=O)C1c1ccccc1	0.226
Cc1cccc(Nc2nc(N)nc(CN3CCC(C(N)=O)CC3)n2)c1C	-0.0699
CCCc1cc(=O)[nH]c(SCCOC(=O)c2ccccc2)n1	-0.349
O=[N+]([O-])c1cnccc1Nc1ccccc1	0.258
O=C(N/N=C/c1cccnc1)c1ccc([N+](=O)[O-])cc1Cl	0.0971

Structure (SMILES)	z-score
c1ccc2cc3[nH]c(CN4CCCCC4)nc3cc2c1	0.256
COC(=O)c1cccc(Nc2cc(C)nc(-c3ccccc3O)n2)c1	0.113
CCOc1ccc(C(=S)N2CCOCC2)cc1	-0.96
O=C(OCCN1C(=O)c2ccccc2C1=O)c1cccs1	0.871
COc1ccc2oc3cc(C)[n+]([O-])c(-c4ccc(Br)cc4)c3c2c1	-0.318
Cc1csc(NC(=O)CSc2nc(C(C)C)nc3c2c(=O)n(C)c(=O)n3C)n1	-0.261
COc1ccc(-c2cn[nH]c2N)cc1	0.0911
O=c1c2[nH]c3ccc(Cl)cc3c2ncn1Cc1ccccn1	-0.309
c1ccc(Cc2nn3c(Cn4cnc5ccccc54)nnc3s2)cc1	-0.232
Cc1nnc(SCCC#N)n(CCC#N)c1=O	1.64
COc1ccc(-n2c(C)cc(C(=O)CSc3nnc(-c4ccoc4C)n3C)c2C)cc1	1.15
Nc1nnc(-c2cccnc2)s1	1.22
COC(=O)c1ccccc1NC(=O)Nc1nnc(N2CCC(C)CC2)s1	0.108
COc1ccc(-n2c(Cn3c(=O)sc4ccccc43)nnc2SCC(=O)N2CCCCC2)cc1	-0.489
CCOC(=O)CCSCC(=O)Nc1nnc(C)s1	0.504
O=C(NC1CCCCC1)C(c1ccc(F)cc1)N(Cc1cccs1)C(=O)CN1C(=O)c2ccccc2S1(=O)=O (stereo unspecified)	0.916
CCC(=O)N1N=C(c2ccc(C)o2)CC1c1ccc(Br)cc1 (stereo unspecified)	-0.889
COc1cc(OC)c(C#N)c(S(=O)Cc2ccccc2)c1 (stereo unspecified)	-0.246
O=C(c1ccccc1)c1ccc2nc(-c3ccc(NC(=O)c4ccccc4F)cc3)[nH]c2c1	-0.162
